# Assay results reported in PubChem BioAssay AID686979 (National Center for Advancing Translational Sciences (NCATS), 2013).
# Where “and” joins values, the source holds several entries; their conditions need not be identical. Equal entries are not always repeated. The campaign covered roughly 420,000 compounds. About 50,000 (12%) were called active. The inconclusive results got no clear call from the source; some entries with a clear call stand among them for comparison. The call rests on the fitted dose curve; in most records, active means well fitted inhibition curve with a large enough effect; inconclusive means small, poorly fitted or top-dose-only effect; inactive means flat fitted curve, though single readings scatter. Potencies beside an inconclusive call are fits to weak or partial responses and may not hold up.
# Assay: qHTS for Inhibitors of human tyrosyl-DNA phosphodiesterase 1 (TDP1): qHTS in cells in presence of CPT; further: nearly all actives have a fitted effect of over 55% in size
# Details: chicken DT40 Tdp1-/-;hTDP1 cells + 20 nM CPT, ATP luminescence, 48 h; activity change, negative = growth inhibition: at 46.2 µM (top of the series) unless noted
# In short: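 Cell growth measured by CellTiter-Glo luminescence after a minimum 48 h, 37 C compound exposure with 20 nM CPT in Tdp1-knockout DT40 cells stably expressing hTDP1, seeded 400/well; qHTS titration format.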
# On the % scale 0 is the no-effect control and ±100 the full control effect; potency means the concentration at half of the fitted maximal effect; tags describe the fitted curve by direction and shape.
SMILES,Potency,"activity change, negative = growth inhibition"
O=C(/C=C/c1ccc(N2CCCCC2)c([N+](=O)[O-])c1)c1ccc(S(=O)(=O)N2CCCC2)cc1,active: 9.2 µM,
CCOCCCn1c(=NC(=O)c2cccnc2)c(C(=O)OCC)cc2c(=O)n3ccccc3nc21,"inconclusive: 20.6 µM [inhibitor, single point] and inconclusive: 14.6 µM [inhibitor, single point]",
CN(C)CCNC(=O)C1(O)c2cc(Br)ccc2NC(=O)N1c1ccc(Cl)cc1 (stereo not drawn),"inconclusive: 1.64 µM [inhibitor, partial curve, poor fit]",
COc1ccc(-c2noc(CCC(=O)N3CCN(c4cccc(F)c4)CC3)n2)cc1,"inconclusive: 20.6 µM [inhibitor, single point]",
O=C(Nc1ccc(Cl)cc1)Nc1ccc(Oc2cccnc2)nc1,active: 18.4 µM,
O=C1c2cccnc2C(Nc2ccc(S(=O)(=O)N3CCCCCC3)cc2)N1Cc1ccccc1 (stereo not drawn),,inconclusive: -35% [inhibitor]
CC(C)(C)C(=O)Nc1cccc(C(=O)OCc2cc(=O)n3nc(C4CC4)sc3n2)c1,"inconclusive: 23.1 µM [inhibitor, single point]",
CCOC(=O)c1ccc(Nc2sc(C(=O)c3cccc([N+](=O)[O-])c3)c(N)c2C#N)cc1,active: 1.03 µM,
CCC1=C(OC(=O)N(CC)CC)N2C(=O)OC(=NCCc3c[nH]c4ccccc34)[C@]2(Cc2ccccc2)[C@H]2C1=CC[C@H]1C(=O)N(c3ccccc3)C(=O)[C@H]12,"inconclusive: 4.61 µM [inhibitor, full curve, poor fit]",
Cc1sc(N/N=C/c2cc([N+](=O)[O-])ccc2O)nc1-c1ccccc1,active: 14.6 µM,
Cc1cc(C)c(C)c(S(=O)(=O)NCCCN2CCCC2=O)c1C,inactive,
O=C(Oc1ccccc1)N1CCCC1,inactive,
Clc1ccc(COc2ccccn2)c(Cl)c1,inactive,
CC(NC(=O)c1cc(-c2ccc3c(c2)OCO3)nc2ccccc12)C(C)(C)C (stereo not drawn),"inconclusive: 29.1 µM [inhibitor, single point]",
CCOC(=O)c1sc(NC(=O)CSc2nncs2)c(C(=O)OCC)c1C,"inconclusive: 29.1 µM [inhibitor, single point]",
CC(C)N(CCNC(=O)C1CCCN(c2ncnc3c2nc2n3CCCCC2)C1)Cc1ccccc1 (stereo not drawn),"inconclusive: 29.1 µM [inhibitor, single point]",
CN1C(=O)c2cccc3c(S(=O)(=O)NCCc4ccccc4)ccc1c23,"inconclusive: 29.1 µM [inhibitor, single point]",
CCOC(=O)CC1=NN(c2ccccc2)C(=O)/C1=C\c1ccc(OC)cc1OC,inactive,
